What is called pIC50 is −log10 of the IC50, conventionally taken in molar units.

The values below come from patent US9126931B2 (priority 2009, dated 2015).

SMILES strings stand for the structures. pIC50: −log10 of the molar value.

This assay concerns Human lymphoma cell line KARPAS-299. As to the kind of experiment: cells. Particulars: KARPAS-299, 96 h, read-out: Inhibitory activity on Karpas-299 cell growth IC50.
Regarding `CCN(CC)CCOc1ccc2c(n1)C(C)(C)c1oc3cc(C#N)ccc3c1C2=O` [EZ9-5, 2-(2-Diethylamino-ethoxy)-11,11-dimethyl-5-oxo-5,11-dihydro-benzo[4,5]furo[3,2-g]quinoline-8-carbonitrile], the pIC50 was 4.87.
The same measure for `CCCc1cc2c(cc1N1CCN(C3CCC3)CC1)C(C)(C)c1[nH]c3cc(C#N)ccc3c1C2=O` [Compound F6-18, 8-(4-Cyclobutyl-piperazin-1-yl)-6,6-dimethyl-11-oxo-9-propyl-6,11-dihydro-5H-benzo[b]carbazole-3-carbonitrile]: 7.64.
On to `CCCC#Cc1cc2c(cc1N1CCOCC1)C(C)(C)c1[nH]c3cc(C#N)ccc3c1C2=O` [Compound F5-8, 6,6-Dimethyl-8-morpholin-4-yl-11-oxo-9-pent-1-ynyl-6,11-dihydro-5H-benzo[b]carbazole-3-carbonitrile], for which the negative logarithm of the IC50 (pIC50) was 7.53.
With `Cn1cc(-c2cc3c(cc2N2CCOCC2)C(C)(C)c2[nH]c4cc(C#N)ccc4c2C3=O)cn1` [Compound F5-11, 6,6-Dimethyl-9-(1-methyl-1H-pyrazol-4-yl)-8-morpholin-4-yl-11-oxo-6,11-dihydro-5H-benzo[b]carbazole-3-carbonitrile] the figure was 8.21; with `COCCCc1cc2c(cc1N1CCN(C3COC3)CC1)C(C)(C)c1[nH]c3cc(C#N)ccc3c1C2=O` [Compound F6-5, 9-(3-Methoxy-propyl)-6,6-dimethyl-8-(4-oxetan-3-yl-piperazin-1-yl)-11-oxo-6,11-dihydro-5H-benzo[b]carbazole-3-carbonitrile], 7.56.
With `CC(C)Oc1cc2c(cc1OC1CCCN(C3CCC3)C1)C(C)(C)c1[nH]c3cc(C#N)ccc3c1C2=O` (centres unmarked) [Compound L10-7, 8-(1-Cyclobutyl-piperidin-3-yloxy)-9-isopropoxy-6,6-dimethyl-11-oxo-6,11-dihydro-5H-benzo[b]carbazole-3-carbonitrile] the figure was 7.43.
In the case of `CCN(CC)CCSc1cc2c(cc1OC)C(C)(C)c1[nH]c3cc(C#N)ccc3c1C2=O` [Compound E4-4, 9-(2-Diethylamino-ethylsulfanyl)-8-methoxy-6,6-dimethyl-11-oxo-6,11-dihydro-5H-benzo[b]carbazole-3-carbonitrile], the negative-log IC50 (pIC50) is 6.96.
With `C#Cc1cc2c(cc1N1CCN(S(C)(=O)=O)CC1)C(C)(C)c1[nH]c3cc(C#N)ccc3c1C2=O` [Compound F5-1, 9-Ethynyl-8-(4-methanesulfonyl-piperazin-1-yl)-6,6-dimethyl-11-oxo-6,11-dihydro-5H-benzo[b]carbazole-3-carbonitrile] the figure was 8.04.
On to `CC1(C)c2cc(C(=O)NCCNS(C)(=O)=O)ccc2C(=O)c2c1[nH]c1cc(C#N)ccc21` [Compound B3-25-3, 3-Cyano-6,6-dimethyl-11-oxo-6,11-dihydro-5H-benzo[b]carbazol-8-carboxylic acid (2-methanesulfonylamino-ethyl)-amide], for which the negative-log IC50 (pIC50) is 6.14.
The same measure for `CCN(CC)CC#Cc1cc2c(cc1N1CCN(C3COC3)CC1)C(C)(C)c1[nH]c3cc(C#N)ccc3c1C2=O` [Compound F5-29, 9-(3-Diethylamino-prop-1-ynyl)-6,6-dimethyl-8-(4-oxetan-3-yl-piperazin-1-yl)-11-oxo-6,11-dihydro-5H-benzo[b]carbazole-3-carbonitrile]: 8.12; for `CCC(C)NCCOc1ccc2c(c1)C(C)(C)c1[nH]c3cc(C#N)ccc3c1C2=O` (centres unmarked) [Compound A8-11, 8-(2-Sec-butylamino-ethoxy)-6,6-dimethyl-11-oxo-6,11-dihydro-5H-benzo[b]carbazole-3-carbonitrile]: 7.17.
Consider `CCN(CC)CCOc1ccc2c(c1)C(C)(C)c1[nH]c3cc(N(C)Cc4ccccc4)ccc3c1C2=O` [GT5-3, 3-(Benzyl-methyl-amino)-8-(2-diethylamine-ethoxy)-6,6-dimethyl-5,6-dihydro-benzo[b]carbazol-11-one], for which the pIC50 was 5.73.
As to `CCN(CC)CCOc1ccc2c(c1)C(C)(C)c1[nH]c3cc(N(C)C(=O)Nc4ccc(OC)cc4)ccc3c1C2=O` [GT5-20, 1-[8-(2-Diethylamino-ethoxy)-6,6-dimethyl-11-oxo-6,11-dihydro-5H-benzo[b]carbazol-3-yl]-3-(4-methoxy-phenyl)-1-methyl-urea], the pIC50 is 5.22.
Regarding `CC(C)S(=O)(=O)N1CCC(COc2ccc3c(c2)C(C)(C)c2[nH]c4cc(Br)ccc4c2C3=O)CC1` [Compound T14-6, 3-Bromo-6,6-dimethyl-8-[1-(propane-2-sulfonyl)-piperidin-4-ylmethoxy]-5,6-dihydro-benzo[b]carbazol-11-one], the pIC50 is 5.71.
